# According to the supplement of paper PMC13016719:
# MIC of multidrug-resistant clinical P. aeruginosa isolates by reference broth microdilution, Sensititre or Phoenix panel; µg/mL of the β-lactam, with the inhibitor fixed at 4 µg/mL where named; higher = less susceptible; each panel covers only a few steps. No active / inactive call per row; the paper applies CLSI M100 breakpoints. The methods often differ by one or more steps on the same isolate. Several isolates can come from one patient. PDC is the chromosomal AmpC β-lactamase of the species; the number names its allele. Isolates are numbered anew.
# What was measured:
# Experiment in all cases: Reference broth microdilution (once per isolate) and two commercial panels; inhibitor fixed at 4 µg/mL.
# imipenem = compound: C[C@@H](O)[C@H]1C(=O)N2C(C(=O)O)=C(SCCNC=N)C[C@H]12 [imipenem]; conditions: reference broth microdilution
# ceftazidime = compound: CC(C)(O/N=C(\C(=O)N[C@@H]1C(=O)N2C(C(=O)[O-])=C(C[n+]3ccccc3)CS[C@H]12)c1csc(N)n1)C(=O)O [ceftazidime] (with: avibactam 4 µg/mL)
# ceftolozane = compound: Cn1c(N)c(NC(=O)NCCN)c[n+]1CC1=C(C(=O)[O-])N2C(=O)[C@@H](NC(=O)/C(=N\OC(C)(C)C(=O)O)c3nsc(N)n3)[C@H]2SC1 [ceftolozane] (with: tazobactam 4 µg/mL)
Test System,MIC (imipenem) [µg/mL],MIC (ceftazidime; BD Phoenix panel) [µg/mL],MIC (ceftazidime; reference broth microdilution) [µg/mL],MIC (ceftolozane; BD Phoenix panel) [µg/mL],MIC (ceftolozane; reference broth microdilution) [µg/mL],MIC (ceftazidime; Sensititre panel) [µg/mL],MIC (ceftolozane; Sensititre panel) [µg/mL]
Pseudomonas aeruginosa isolate 48 (PDC allele: blaPDC-41),> 8,4,8,8,8,,
Pseudomonas aeruginosa isolate 49 (PDC allele: blaPDC-3),2,4,8,≤ 1,4,8,2
Pseudomonas aeruginosa isolate 50 (PDC allele: blaPDC-1),2,2,≤ 4,2,2,≤ 4,2
Pseudomonas aeruginosa isolate 51 (PDC allele: blaPDC),> 8,> 8,16,2,2,16,≤ 1
Pseudomonas aeruginosa isolate 52 (PDC allele: blaPDC-3),2,4,≤ 4,≤ 1,2,≤ 4,8
Pseudomonas aeruginosa isolate 54 (PDC allele: blaPDC-8),≤ 1,4,≤ 4,≤ 1,≤ 1,,
Pseudomonas aeruginosa isolate 55 (PDC allele: blaPDC-8),> 8,8,16,4,4,> 16,4
Pseudomonas aeruginosa isolate 56 (PDC allele: blaPDC-34),8,1,≤ 4,2,2,,
Pseudomonas aeruginosa isolate 57 (PDC allele: blaPDC-162),≤ 1,2,≤ 4,≤ 1,2,,
Pseudomonas aeruginosa isolate 58 (PDC allele: blaPDC-1),8,8,16,2,4,16,4
Pseudomonas aeruginosa isolate 59 (PDC allele: blaPDC-121),8,> 8,16,2,2,16,2
"Pseudomonas aeruginosa isolate 60 (ESBL gene: blaPAC-1, PDC allele: blaPDC-36)",> 8,> 8,≥ 32,> 8,≥ 16,,
Pseudomonas aeruginosa isolate 61 (PDC allele: blaPDC-402),8,> 8,8,2,≤ 1,,
Pseudomonas aeruginosa isolate 62 (PDC allele: blaPDC-3),> 8,8,8,≤ 1,≤ 1,16,2
Pseudomonas aeruginosa isolate 63 (PDC allele: blaPDC-37),> 8,8,16,2,8,,
Pseudomonas aeruginosa isolate 64 (PDC allele: blaPDC-6),> 8,8,≥ 32,4,8,,
Pseudomonas aeruginosa isolate 66 (PDC allele: blaPDC-1),> 8,2,≤ 4,2,≤ 1,,
Pseudomonas aeruginosa isolate 67 (PDC allele: blaPDC-41),8,8,≤ 4,2,≤ 1,8,≤ 1
Pseudomonas aeruginosa isolate 69 (PDC allele: blaPDC-34),4,2,8,≤ 1,4,≤ 4,8
Pseudomonas aeruginosa isolate 70 (PDC allele: blaPDC-364),≤ 1,8,8,≤ 1,2,,
Pseudomonas aeruginosa isolate 71 (PDC allele: blaPDC-30),> 8,≤ 0.25,8,≤ 1,4,8,4
Pseudomonas aeruginosa isolate 72 (PDC allele: blaPDC-1),2,4,≤ 4,≤ 1,≤ 1,,

Test System,MIC (imipenem) [µg/mL],MIC (ceftazidime; BD Phoenix panel) [µg/mL],MIC (ceftazidime; reference broth microdilution) [µg/mL],MIC (ceftolozane; BD Phoenix panel) [µg/mL],MIC (ceftolozane; reference broth microdilution) [µg/mL],MIC (ceftazidime; Sensititre panel) [µg/mL],MIC (ceftolozane; Sensititre panel) [µg/mL]
Pseudomonas aeruginosa isolate 73 (PDC allele: blaPDC-34),≤ 1,1,≤ 4,≤ 1,≤ 1,,
Pseudomonas aeruginosa isolate 74 (PDC allele: blaPDC-34),4,2,≤ 4,2,2,,
Pseudomonas aeruginosa isolate 75 (PDC allele: blaPDC-5),8,> 8,≥ 32,4,8,> 16,8
Pseudomonas aeruginosa isolate 76 (PDC allele: blaPDC-15),4,8,8,≤ 1,≤ 1,8,
Pseudomonas aeruginosa isolate 77 (PDC allele: blaPDC-109),≤ 1,8,≤ 4,2,2,≤ 4,4
Pseudomonas aeruginosa isolate 79 (PDC allele: blaPDC-16),> 8,2,≤ 4,≤ 1,≤ 1,,
Pseudomonas aeruginosa isolate 80 (PDC allele: blaPDC-5),4,> 8,16,≤ 1,≤ 1,,
Pseudomonas aeruginosa isolate 81 (PDC allele: blaPDC-5),2,> 8,16,2,≤ 1,,
Pseudomonas aeruginosa isolate 82 (PDC allele: blaPDC-71),> 8,2,≤ 4,2,≤ 1,,
Pseudomonas aeruginosa isolate 83 (PDC allele: blaPDC-34),≤ 1,4,≤ 4,≤ 1,≤ 1,,
Pseudomonas aeruginosa isolate 84 (PDC allele: blaPDC-56),> 8,8,8,2,2,,
"Pseudomonas aeruginosa isolate 85 (PDC allele: blaPDC-3, ftsI change: ftsI_R504C)",> 8,> 8,16,4,2,16,4
Pseudomonas aeruginosa isolate 86 (PDC allele: blaPDC-1),8,1,≤ 4,≤ 1,≤ 1,≤ 4,2
Pseudomonas aeruginosa isolate 88 (PDC allele: blaPDC-5),4,2,≤ 4,2,4,,
Pseudomonas aeruginosa isolate 89 (PDC allele: blaPDC-3),≤ 1,≤ 0.25,8,≤ 1,4,≤ 4,≤ 1
Pseudomonas aeruginosa isolate 90 (PDC allele: blaPDC-71),8,2,≤ 4,≤ 1,4,≤ 4,≤ 1
Pseudomonas aeruginosa isolate 91 (PDC allele: blaPDC-3),> 8,8,8,2,4,,
Pseudomonas aeruginosa isolate 92 (PDC allele: blaPDC-8),8,4,≤ 4,≤ 1,≤ 1,≤ 4,≤ 1
Pseudomonas aeruginosa isolate 93 (PDC allele: blaPDC-30),8,4,≤ 4,4,2,≤ 4,≤ 1
Pseudomonas aeruginosa isolate 95 (PDC allele: blaPDC-8),2,> 8,16,2,2,16,2
Pseudomonas aeruginosa isolate 97 (PDC allele: blaPDC-12),> 8,8,16,2,4,> 16,4
Pseudomonas aeruginosa isolate 98 (PDC allele: blaPDC-1),> 8,8,16,2,4,,
